In PubChem BioAssay AID504332 (National Center for Advancing Translational Sciences (NCATS), 2011):
The campaign covered roughly 350,000 compounds. About 31,000 (8.9%) were called active. Inconclusive results, whose numbers are uncertain, are shown with a selection of clear calls. The call rests on the fitted dose curve; in most records, active means well fitted inhibition curve with a large enough effect; inconclusive means small, poorly fitted or top-dose-only effect; inactive means no such curve, though single readings can be large or run the other way. A potency beside an inconclusive call is a rough fit, not a confirmed value.
Further: nearly all actives have a fitted effect of over 75% in size.
On the % scale 0 is the no-effect control and ±100 the full control effect; potency means the concentration at half of the fitted maximal effect; tags describe the fitted curve by direction and shape.

Each molecule was assayed against Histone-lysine N-methyltransferase EHMT2 (Homo sapiens) (UniProt Q96KQ7) (assay: qHTS Assay for Inhibitors of Histone Lysine Methyltransferase G9a). Settings: G9a H3K9 monomethylation, AlphaScreen, 2 h; activity, negative = inhibition: at 59 µM (top of the series) unless noted.
Sequence of UniProt Q96KQ7 (Q96KQ7 whole entry, looked up): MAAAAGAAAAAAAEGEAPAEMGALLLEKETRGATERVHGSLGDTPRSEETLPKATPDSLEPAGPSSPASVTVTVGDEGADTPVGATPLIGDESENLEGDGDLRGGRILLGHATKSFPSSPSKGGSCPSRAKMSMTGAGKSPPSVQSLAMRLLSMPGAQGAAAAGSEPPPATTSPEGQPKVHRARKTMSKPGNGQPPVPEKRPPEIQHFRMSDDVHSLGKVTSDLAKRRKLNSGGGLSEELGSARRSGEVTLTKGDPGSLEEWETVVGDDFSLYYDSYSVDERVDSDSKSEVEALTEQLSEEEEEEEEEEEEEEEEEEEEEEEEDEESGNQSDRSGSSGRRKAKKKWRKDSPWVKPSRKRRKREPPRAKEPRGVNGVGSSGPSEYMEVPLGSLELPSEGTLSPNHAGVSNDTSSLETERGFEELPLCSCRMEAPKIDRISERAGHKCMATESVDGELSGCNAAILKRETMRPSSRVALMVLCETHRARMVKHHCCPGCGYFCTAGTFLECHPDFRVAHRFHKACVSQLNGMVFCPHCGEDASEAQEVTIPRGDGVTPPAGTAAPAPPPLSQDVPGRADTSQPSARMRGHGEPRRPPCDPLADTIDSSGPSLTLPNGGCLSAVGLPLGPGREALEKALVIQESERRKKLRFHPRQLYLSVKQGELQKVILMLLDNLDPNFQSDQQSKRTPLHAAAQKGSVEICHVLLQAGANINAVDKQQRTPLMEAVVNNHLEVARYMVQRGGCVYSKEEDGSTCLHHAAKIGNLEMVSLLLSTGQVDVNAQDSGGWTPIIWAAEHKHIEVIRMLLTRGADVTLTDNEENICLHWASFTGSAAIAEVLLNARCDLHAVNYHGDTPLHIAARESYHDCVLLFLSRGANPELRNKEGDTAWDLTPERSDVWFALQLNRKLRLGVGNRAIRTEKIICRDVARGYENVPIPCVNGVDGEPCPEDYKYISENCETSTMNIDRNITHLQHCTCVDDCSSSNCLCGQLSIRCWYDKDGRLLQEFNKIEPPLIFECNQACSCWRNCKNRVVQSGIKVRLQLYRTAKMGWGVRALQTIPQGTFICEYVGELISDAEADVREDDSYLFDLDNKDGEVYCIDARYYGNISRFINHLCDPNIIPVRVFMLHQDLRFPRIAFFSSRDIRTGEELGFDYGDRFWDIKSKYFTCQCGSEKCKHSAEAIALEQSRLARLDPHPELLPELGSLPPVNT
In short: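 Step 1: enzyme (final 20 nM) with compound, 15 min RT. Step 2: substrate peptide 500 nM and SAM 20 uM, 2 h RT. Step 3: anti-H3K9me1 antibody and AlphaScreen beads, 10 min, then plate read.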
For CC(NC(=O)Cc1cccs1)c1ccncc1 (configuration not stated), the Potency was inconclusive: 22.4 µM [inhibitor, partial curve, poor fit]. For CCNC(=O)C(=O)NCCc1ccc(Cl)cc1, the Potency was inconclusive: 79.4 µM [inhibitor, single point]. In the case of COc1ccc(N=Cc2c(O)c3ccccc3n2C(C)=O)cc1, the Potency is reported as active: 25.1 µM. With COc1ccccc1OCC(=O)Nc1c(C(=O)c2ccc(F)cc2)oc2ccccc12 the Potency was “inactive”. With CCC(CC)C(=O)Nc1ccc(Nc2ccccc2)cc1 the Potency was inconclusive: 0.891 µM [inhibitor, full curve, poor fit]. COc1ccccc1S(=O)Cc1ccc(C(=O)NCc2ccccc2Cl)o1 (configuration not stated) was tested, and the Potency was active: 3.55 µM. CCN(CC)CC(=O)c1c[nH]c2ccc(C)cc12 was tested, and the Potency was inconclusive: 20 µM [inhibitor, partial curve, poor fit]. CCOc1ccccc1NC(=O)CCNS(=O)(=O)c1ccc2[nH]c(=O)oc2c1 was tested, and the Potency was inconclusive: 39.8 µM [inhibitor, partial curve, poor fit]. With O=C(NC1CCCC1)C(c1ccc(N2CCOCC2)cc1)N(Cc1ccco1)C(=O)c1ccco1 (configuration not stated) the Potency was inconclusive: 28.2 µM [inhibitor, single point]. With CCCCN(C(=O)c1cc2c(s1)CCC2)c1c(N)n(CCCC)c(=O)[nH]c1=O the Potency was inconclusive: 15.8 µM [inhibitor, partial curve, poor fit]. CCCCCCCCCCCCCCCCCCNC(=O)OCC(COP(=O)([O-])OCC[n+]1ccsc1)OC (configuration not stated) was tested, and the Potency was active: 21.2 µM. COC(=O)c1sccc1NC(=S)Nc1ccc(F)cc1F was tested, and the Potency was inconclusive: 79.4 µM [inhibitor, single point]. With COc1cc(CC(=O)OCC(=O)c2c[nH]c3ccccc23)cc(OC)c1OC the Potency was inconclusive: 35.5 µM [inhibitor, single point]. In the case of Cc1ccccc1-n1ccnc1SCC(=O)NC1CCCC1, the Potency is reported as “inactive”. For CCOC(=O)N1CCN(C(=O)c2ccc3c(c2)N=C(CC)c2cc(C)ccc2S3)CC1, the Potency was inconclusive: 28.2 µM [inhibitor, partial curve, poor fit]. With COc1cc(/C=C2/SC(=S)N(CC(=O)O)C2=O)ccc1OC(=O)c1ccco1 the Potency was active: 44.7 µM. With Cc1occc1C(=O)n1nnc2ccccc21 the Potency was inconclusive: 25.1 µM [inhibitor, single point]. CN(CCC1CCCCO1)Cc1cn(C)nc1-c1ccc2c(c1)OCCO2 (configuration not stated) was tested, and the Potency was inconclusive: 28.2 µM [inhibitor, partial curve, poor fit]. With CC(CNC(=O)CCS(=O)(=O)c1cc2c(cc1Cl)NC(=O)CO2)c1ccccc1 (configuration not stated) the Potency was “inactive”. Cc1cc(O)ccc1NC(=S)NC(=O)c1cncc(Br)c1 was tested, and the Potency was inconclusive: 44.7 µM [inhibitor, partial curve, poor fit]. COCCCn1c(=N)c(C(=O)NCC2CCCO2)cc2c(=O)n3ccccc3nc21 (configuration not stated) was tested, and the Potency was inconclusive: 79.4 µM [inhibitor, partial curve, poor fit]. CN(C)S(=O)(=O)c1cccc(NC(=S)Nc2ccc3cn[nH]c3c2)c1 was tested, and the Potency was “inactive”. In the case of CCc1ccc(Oc2c(C(F)(F)F)oc3c(CN4CCCC(C)C4)c(O)ccc3c2=O)cc1 (configuration not stated), the Potency is reported as “inactive”. For CN(/C=C1/C(=O)CNC1=O)CCO, the Potency was inconclusive: 50.1 µM [inhibitor, partial curve, poor fit]. COc1ccc(N2CCN(c3csc4ccccc4c3=O)CC2)cc1 was tested, and the Potency was inconclusive: 22.4 µM [inhibitor, single point]. For CN1CCN(C(=O)c2cc(Cl)ccc2NC(=O)c2ccc(Cl)cc2Cl)CC1, the Potency was inconclusive: 0.631 µM [inhibitor, partial curve, poor fit]. OCCCc1cn(-c2ccccc2)c2ccccc12 was tested, and the Potency was “inactive”. For CC(Sc1oc(-c2cccs2)nc1S(=O)(=O)c1ccccc1)c1ccccc1 (configuration not stated), the Potency was inconclusive: 17.8 µM [inhibitor, single point]. With CCCCCCc1cc2cc(C(=O)NC)c(=N)oc2cc1O the Potency was “inactive”. In the case of Cc1ccc(C2=NN(C(=O)CCl)C(c3ccco3)C2)o1 (configuration not stated), the Potency is reported as active: 39.8 µM. With CC(C)(C)c1nc(SCC(=O)N2CCCC2)c2ccccc2n1 the Potency was active: 50.1 µM. In the case of O=S(=O)(Nc1nc2ccccc2s1)c1ccc(Cl)s1, the Potency is reported as inconclusive: 35.5 µM [inhibitor, single point]. In the case of CN1/C(=C\C(=O)c2cccnc2)C(C)(C)c2ccccc21, the Potency is reported as “inactive”. In the case of CCOc1nc2cccc(C(=O)O)c2n1Cc1ccc(-c2ccccc2-c2nn[nH]n2)cc1, the activity, negative = inhibition is reported as inactive: -4.71% [at 12.7 µM]. For Cc1ccc(S(=O)(=O)NCCNC(C)c2ccc(Br)cc2)cc1 (configuration not stated), the activity, negative = inhibition was inactive: -1.1% [at 12.7 µM]. For CC(=O)Nc1ccc(SCC(=O)Nc2sccc2C#N)cc1, the Potency was inconclusive: 50.1 µM [inhibitor, partial curve, poor fit]. CCc1ccccc1NC(=O)C1CCCN(c2cnccn2)C1 (configuration not stated) was tested, and the Potency was “inactive”. For CCCCNC(=O)CS(=O)Cc1nc(-c2cccs2)oc1C (configuration not stated), the Potency was active: 50.1 µM. CC(=O)NCCSc1ccc(S(=O)(=O)N2CCCC2)cn1 was tested, and the Potency was inconclusive: 3.98 µM [inhibitor, single point]. In the case of COc1cc(/C=N/NC(=O)c2cccc(S(=O)(=O)N3CCOCC3)c2)cc(OC)c1O, the Potency is reported as active: 39.8 µM. In the case of Cc1nc(SCC(=O)c2cc3ccccc3oc2=O)c(C#N)c(C)c1C(=O)Nc1ccccc1, the Potency is reported as inconclusive: 50.1 µM [inhibitor, partial curve, poor fit]. Cc1ccc(OCC(=O)NCCO)c(Br)c1 was tested, and the Potency was “inactive”. For CCOC(=O)c1cccc(N2C(=O)Nc3ccccc3N2O)c1, the Potency was “inactive”. N#C/C(=C/c1ccc(Sc2nc3ccccc3[nH]2)o1)c1cccc(F)c1 was tested, and the Potency was inconclusive: 56.2 µM [inhibitor, partial curve, poor fit]. With COc1ccc(N(CC(=O)NCCSC2CCCCC2)S(C)(=O)=O)c(OC)c1 the activity, negative = inhibition was inactive: -32.1% [at 12.7 µM]. With COc1ccccc1N1CCN(C(c2cccs2)C(C)NC(=O)c2ccncc2)CC1 (configuration not stated) the Potency was “inactive”. In the case of Cc1ccc(NC(=O)Cn2c(-c3nonc3N)nc3ccccc32)cc1Cl, the Potency is reported as “inactive”.
